Reference: the supplement of paper PMC3334620
The full ranking holds about 33,000 sequences; the median of “E-score (-0.5 to 0.5)” is about -0.012, and the highest 2% start at about 0.27. The list shows a part of the results.

molecular target: T1, Vhr1 (UniProt P40522); assay: PBM E-score (8-mer binding enrichment) (E-score (-0.5 to 0.5)); higher = stronger / more preferred TF binding; most listed sequences are background and not binding sites; conditions: protein concentration: 200 nM; construct: GST-full length
T1 sequence: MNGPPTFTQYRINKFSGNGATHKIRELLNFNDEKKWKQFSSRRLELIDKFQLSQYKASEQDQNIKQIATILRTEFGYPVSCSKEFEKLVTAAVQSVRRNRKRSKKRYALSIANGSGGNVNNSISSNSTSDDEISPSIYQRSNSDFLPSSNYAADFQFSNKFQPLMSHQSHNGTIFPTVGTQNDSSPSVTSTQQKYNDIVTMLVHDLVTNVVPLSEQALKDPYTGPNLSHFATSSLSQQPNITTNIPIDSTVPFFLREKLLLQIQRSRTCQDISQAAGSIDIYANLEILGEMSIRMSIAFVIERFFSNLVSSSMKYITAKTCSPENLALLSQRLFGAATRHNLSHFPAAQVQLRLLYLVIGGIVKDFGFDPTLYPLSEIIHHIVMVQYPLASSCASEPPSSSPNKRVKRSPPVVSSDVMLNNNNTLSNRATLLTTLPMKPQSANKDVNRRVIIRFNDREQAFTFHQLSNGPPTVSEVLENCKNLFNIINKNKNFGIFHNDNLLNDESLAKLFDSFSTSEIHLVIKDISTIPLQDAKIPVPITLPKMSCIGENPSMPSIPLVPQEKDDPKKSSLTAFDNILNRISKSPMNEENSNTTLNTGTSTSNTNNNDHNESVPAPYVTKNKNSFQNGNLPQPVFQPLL
Description: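 Universal 'all 10-mer' protein binding microarrays (Agilent AMADID 015681) probed with GST-tagged S. cerevisiae TFs (full-length or DBD) made by in vitro transcription/translation (PURExpress), about 100-200 nM. Bound TF was detected with fluorescent anti-GST. Each ungapped 8-mer (which stands for itself and its reverse complement) is scored by the PBM enrichment score (E-score), a modified Wilcoxon-Mann-Whitney statistic from -0.5 to +0.5, computed with the Universal PBM Analysis Suite. Scale: above 0.35 generally sequence-specific binding.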

Sequence	PBM E-score
ATGGTAAC	0.151
AGGATAAC	-0.0693
ATCGATAC	0.149
AGGCCATA	-0.0523
ACTTAGTG	0.0972
AGTGATGG	0.0185
CACCTGGG	0.196
AGCCACGA	0.0851
GCGAGGAC	-0.0317
CGACGGAA	-0.0009
GTCACAAC	0.207
AGTTCATA	0.143
CTTGCTTC	-0.214
AAGCACCG	-0.0762
ATAGGGAT	0.0344
CACTGGAC	0.107
GCGCCTGA	0.048
AACGCGCG	0.148
CTCCGGAC	0.0766
ACCGAGGC	-0.0803
GACGGTCA	0.0404
GGTCTCGA	-0.0244
ATGGAAAT	-0.0238
GGCAGCGA	-0.0616

Sequence	PBM E-score
GGGATACA	0.0929
CCCCTAGA	-0.115
AGAAATCA	0.1
CCACACAC	0.143
CGAGCAAA	-0.143
AAACCGCG	0.176
CCGAGATA	-0.0394
GGCCAGAA	-0.00605
CGCTTCGA	-0.0202
CAGACGAA	0.206
ACAACAAA	0.0529
CCTCGGCA	-0.129
CTCTGGAA	-0.193
ACTACTTA	0.017
TCCCGGGA	-0.0779
CTCCCCAA	0.105
AATTATTA	0.0229
CTCCTCAA	-0.129
CGCTAGCC	-0.154
GTTCCCAA	-0.13
CCGATATA	-0.131
ACGTCTAA	-0.0983
CCTTTTCG	-0.151
ATCTAAAG	-0.0653

Sequence	PBM E-score
AGTTGCCG	-0.0574
CCGTTCAG	-0.184
CTTAGGCC	-0.102
CACGGTAA	-0.0299
CATTACGG	-0.0535
GGTCTAGA	-0.122
GCGCATAC	-0.0687
CGCAACAC	0.13
GCGCAACC	-0.0294
TAACGCAA	-0.0231
CCGCGTAG	0.11
GCTAAGCC	-0.0382
GTGCCATA	-0.174
GATGATGC	0.0431
CCGTCCAG	-0.0853
AAGAGTGG	-0.0723
GATCCCCC	-0.129
GGAACCAA	0.171
GGATACTA	0.0459
ACACAGGC	0.226
GAACGTTA	-0.323
GCCAAATA	-0.0475
GTGGTGCA	-0.217
GCCGATCC	0.0158

Sequence	PBM E-score
CCATCTGC	0.0983
AACCAGAC	-0.00075
GGTCGATA	0.0188
CGACTCCA	0.4
GAGATGAC	0.248
CCCCATCG	0.0191
CGGACATA	-0.00426
ATACGGCC	0.0223
AAACGCAA	0.00869
GTGCTCGA	-0.135
GTGTGGTA	-0.0123
CGCAATAC	0.268
GAGCATCC	-0.183
AGTGCAAC	0.0257
CTCGACAC	0.0634
CTATTGGA	-0.0419
CTAGGGAA	-0.156
CCCAGTTA	-0.039
CACATGTA	0.262
ACCGCCCG	-0.058
CTGTATTA	0.119
AGTCTCAT	0.135
